# Results taken from PubChem BioAssay AID488969 (Vanderbilt High Throughput Screening Facility, 2010).
# Over roughly 110,000 compounds, “z-score” has its median near -0.1; the highest 2% begin near 2. The list shows a part of the results. Activity calls are given as the source filed them.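 Rule for the calls: active = z-score in the third read window above 3 or below -3; inactive = the rest.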
# Molecular target: Metabotropic glutamate receptor 8 (Rattus norvegicus) (UniProt P70579)
# Experiment: mGluR8 Gi/Go-coupled signaling modulation – cell-based, rat, thallium flux, HTS, primary screen (AID 488969)
# Details: HEK293 rat mGluR8, GIRK (G protein-gated inwardly rectifying potassium channel) thallium flux, FluoZin2; at 10 µM; stronger effect = higher value; submaximal glutamate (EC20) added with thallium
# Chain of UniProt P70579 (P70579 whole entry, looked up): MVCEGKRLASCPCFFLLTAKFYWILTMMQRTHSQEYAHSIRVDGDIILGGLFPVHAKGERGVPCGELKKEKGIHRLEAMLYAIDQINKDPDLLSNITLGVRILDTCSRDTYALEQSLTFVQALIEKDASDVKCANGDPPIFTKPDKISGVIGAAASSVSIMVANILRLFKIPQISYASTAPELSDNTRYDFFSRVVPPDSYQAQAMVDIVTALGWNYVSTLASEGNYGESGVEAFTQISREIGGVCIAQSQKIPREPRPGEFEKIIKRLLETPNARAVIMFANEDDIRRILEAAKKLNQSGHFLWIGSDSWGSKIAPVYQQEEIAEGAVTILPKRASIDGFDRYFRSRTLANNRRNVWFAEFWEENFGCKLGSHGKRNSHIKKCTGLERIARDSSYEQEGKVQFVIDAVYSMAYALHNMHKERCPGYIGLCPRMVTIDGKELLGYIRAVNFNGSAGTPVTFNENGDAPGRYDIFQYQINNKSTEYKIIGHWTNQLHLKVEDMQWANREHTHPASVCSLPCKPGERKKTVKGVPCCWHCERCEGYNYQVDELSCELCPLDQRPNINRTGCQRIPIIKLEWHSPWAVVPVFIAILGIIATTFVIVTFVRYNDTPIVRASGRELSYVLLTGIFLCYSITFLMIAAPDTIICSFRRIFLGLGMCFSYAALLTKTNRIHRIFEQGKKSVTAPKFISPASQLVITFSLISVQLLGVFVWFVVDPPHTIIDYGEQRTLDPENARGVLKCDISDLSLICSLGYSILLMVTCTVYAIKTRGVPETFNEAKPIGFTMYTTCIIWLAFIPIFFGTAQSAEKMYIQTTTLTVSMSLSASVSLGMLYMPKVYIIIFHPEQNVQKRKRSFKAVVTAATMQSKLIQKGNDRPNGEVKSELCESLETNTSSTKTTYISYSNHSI
row,Compound,z-score
1,C1CCc2nnc(-c3nnc4n3CCCCC4)n2CC1,1.92
2,Cc1[nH]n(-c2ccccc2)c(=O)c1/C=N/n1c(C)nc2ccccc2c1=O,0.557
3,Cc1ccc(S(=O)(=O)c2cc(C#N)c(=O)[nH]c2N)cc1,-0.153
4,COc1ccc(C(=O)COC(=O)[C@H](C)Nc2ccc(C(F)(F)F)cc2[N+](=O)[O-])cc1,0.00425
5,Cc1ccc(C)c(NC(=O)c2cc3c([nH]c4ccccc43)c(C)n2)c1,-0.144
6,Cc1cc(=O)oc(C)c1C(=O)NCCc1ccc(F)cc1,-0.0519
7,COc1ccccc1CC(=O)Nc1ccccc1O,0.258
8,COC(=O)c1cc(Cl)c(NC(=O)/C=C/c2ccc(OC)c(OC)c2)cc1OC,-0.134
9,CCCCC(CC(O)COCC(C)C)C(=O)NNC(=S)Nc1ccccc1 (stereo not drawn),0.0716
10,CC(=O)C1=C(O)C(=O)N(c2cccc(C(=O)O)c2)C1c1ccc(F)cc1 (stereo not drawn),-0.153
11,Cc1ccc(C(=O)/C=C/Nc2ccccc2C(N)=O)cc1,0.189
12,COc1ccc2[nH]c(=O)c(CN(CCCN(C)C)C(=O)Nc3ccccc3)cc2c1,-0.404
13,Cc1cc(Cl)c(S(=O)(=O)N2CCN(c3ccc(F)cc3)CC2)cc1OCC(=O)NC1CCCCC1,0.177
14,CS(=O)(=O)N1CCC(C(=O)N2CCC(Cc3ccccc3)CC2)CC1,-0.152
15,CC(C)OC(=O)C(CC(=O)O)NCc1ccccc1 (stereo not drawn),-0.203
16,Cc1c(NC(=O)C2CCN(S(=O)(=O)c3ccc(Cl)cc3)CC2)c(=O)n(-c2ccccc2)n1C,-0.518
17,CCN(C(=O)c1ccc(NC(C)=O)cc1)c1ccccc1C,0.0987
18,Cc1cc(N)ccc1N1CCCC1,-0.246
19,CCOc1ccc(-n2nnnc2-c2nc3ccccc3s2)cc1,-0.319
20,CCOC(=O)c1cnc2c(C)cccc2c1NCCc1ccc(OC)c(OC)c1,-0.264
21,COC(=O)c1c(NC(=O)C2CC(=O)NN2Cc2ccccc2)sc(C)c1C (stereo not drawn),-0.118
22,COc1ccc(/C=C/C(=O)NC(C)C)cc1Br,-0.339
23,Cc1cc(C)nc(NC2=NC3CCCCC3N2)n1 (stereo not drawn),-0.196

row,Compound,z-score
1,CCNCc1cc2cc(C)ccc2[nH]c1=O,-0.392
2,COc1ccc(C(=O)N2CCN(c3ncnc4c(-c5ccccc5)nsc34)CC2)cc1,-0.0928
3,Cc1cc(NC2C3CC4CC(C3)CC2C4)n2nnnc2n1 (stereo not drawn),-0.253
4,CCn1c(=NC(=O)CN2C(=O)CCC2=O)sc2c(OC)ccc(OC)c21,-0.0159
5,COc1ccc2[nH]c(C)c(CCN3C(=O)C4CC=CCC4C3=O)c2c1 (stereo not drawn),-0.193
6,O=C(NC1CCCc2ccccc21)c1cncc(Br)c1 (stereo not drawn),0.164
7,NS(=O)(=O)c1cc(C(=O)N2CCc3ccccc32)c(Cl)cc1Cl,0.105
8,Cc1ccsc1/C=N/n1c(=S)[nH]nc(C)c1=O,-0.431
9,COc1ccc(C(=O)NC2CC(C)(C)Cc3occc32)cc1 (stereo not drawn),-0.102
10,N#Cc1c(Nc2ccccc2)sc(C(=O)c2ccccc2)c1N,-0.209
11,O=C(Cc1c(C(=O)O)[nH]c2ccccc12)Nc1ccc2c(c1)OCO2,0.0702
12,O=C(c1c(F)c(F)c(F)c(F)c1F)N(Cc1ccccc1)Cc1ccccc1,0.0492
13,CCOC(=O)C(NCCCO)c1ccccc1 (stereo not drawn),-0.247
14,CCOc1ccc(C(=O)Nc2ccc3c(c2)OCO3)cc1OCC,-0.0217
15,COCC(=O)n1nc(-c2ccc(Cl)cc2)nc1NCc1ccc(F)cc1,-0.233
16,CCNC(=O)O/N=C(\C)c1sc(-c2ccccc2)nc1C,-0.481
17,CCOC(=O)c1c(C)[nH]c(C(=O)CSc2nc3ccccc3o2)c1C,0.133
18,COCCNC(=S)N/N=C/c1c(C)[nH]c2ccccc12,-0.305
19,CCN1C(=O)/C(=C\N(C(C)=O)c2ccccc2)OC1=S,0.215
20,CCN(CCCNC(=O)CCc1nc(-c2ccc(C)cc2)no1)c1cccc(C)c1,-0.28
21,CCC(=O)N1CCc2cc(Br)cc(S(=O)(=O)CCC(=O)NCC3CCCO3)c21 (stereo not drawn),-0.168
22,COC(CNC(=O)c1ccc(N2CCCC2=O)cc1)OC,-0.0338
23,Cc1ccc(S(=O)(=O)N2CCC(CN3C(=O)c4cccc5cccc(c45)C3=O)CC2)cc1,-0.319

row,Compound,z-score
1,Cc1ccc(-c2noc(CN(C(=O)c3cccs3)C(C)C)n2)cc1,-1.1
2,O=C(COC(=O)Cc1ccccc1[N+](=O)[O-])NCc1ccc(F)cc1,-0.357
3,O=C(COC(=O)C1CC1)NCc1ccccc1Cl,0.144
4,COc1ccc(OCCCCOc2ccccc2Cl)cc1,-0.0386
5,CCC(Sc1nc2ccccc2s1)C(=O)Nc1cc(C)on1 (stereo not drawn),-0.499
6,Cc1cc(NC(=O)c2ccc(S(=O)(=O)N(C)C)cc2)no1,0.501
7,CC(=O)c1c(O)cc(C(C)C)n(-c2ccccc2)c1=O,0.1
8,COc1cccc(/C=N/NC(=O)c2ccc(=O)n(C)c2)c1OC,-0.164
9,COc1ccc(S(=O)(=O)N2CCOCC2)cc1NC(=O)COC(=O)C1COc2ccccc2O1 (stereo not drawn),-0.525
10,O=C(Nn1c(Cc2cccs2)nc2ccccc2c1=O)c1ccc(F)c(F)c1,0.104
11,Cc1cc(-c2nnco2)c(C)n1-c1ccc(F)cc1,-0.929
12,CCCN(Cc1cc2cccc(C)c2[nH]c1=O)S(C)(=O)=O,0.108
13,CCCCN(CCCC)C(=O)c1nsnc1-c1ccccc1O,-0.195
14,CCSc1nnc(NC(=O)Cc2ccccc2OC)s1,0.186
15,COc1cccc(C2(c3cccc(OC)c3)CC2C(=O)Nc2ccc(F)cc2)c1 (stereo not drawn),-0.642
16,COc1ccc(-c2nc3c(c(=O)[nH]c(=O)n3Cc3ccccc3)n2Cc2ccccc2)cc1,-0.593
17,C=CCc1cc(C)ccc1OCCOCCn1ccnc1,-0.0974
18,Cc1ccc(S(=O)(=O)N2CCN(CC(=O)NC3CCCc4ccccc43)CC2)cc1C (stereo not drawn),-0.462
19,COc1ccc(C2CC(=O)c3cnc(NC(=O)c4ccccc4)nc3C2)c(OC)c1 (stereo not drawn),-0.297
20,COc1nc(N/N=C/c2ccccc2F)nc(N2CCCCC2)n1,-0.07
21,Nc1c(C(=O)NC2CCCC2)c2nc3ccccc3nc2n1N,-0.553
22,Cc1cc(C)nc(Nc2n[nH]c(COc3ccc(Cl)cc3)n2)n1,0.163
23,CC(C)Cn1c(-c2ccccc2)nc2ccccc2c1=O,0.193

row,Compound,z-score
1,CCOC(=O)C1C(=O)C=C(c2cccs2)CC1c1ccccc1 (stereo not drawn),-0.493
2,COCC(C)NC(=O)COc1ccc(Cl)cc1Cl (stereo not drawn),0.534
3,CP(C)(=O)CCP(=O)(c1ccccc1)c1ccccc1,-0.814
4,O=C(C1CCCCN1S(=O)(=O)c1ccccc1)N1CCCCC1 (stereo not drawn),1.27
5,Cn1c(Cc2cccc3ccccc23)nnc1SCc1ccc([N+](=O)[O-])cc1,0.888
6,CCN(c1cccc(C)c1)C(C(=O)Nc1ccc(OC)cc1)c1cc2c(cc1[N+](=O)[O-])OCO2 (stereo not drawn),-0.152
7,COc1ccc(N2C(=O)CCC2(C#N)c2ccc(OC)cc2)cc1 (stereo not drawn),0.0527
8,CSc1ccc(/C=N/NC(=O)CN2CCN(Cc3ccccc3Cl)CC2)cc1,-0.193
9,COc1ccc(S(=O)(=O)N[C@H](C(=O)N2CC[C@@]3(O)CCCC[C@H]3C2)c2ccccc2)cc1,-1.15
10,CC(C)Cn1cc(C(=O)N2CCN(c3ccccn3)CC2)c2c3ccccc3n(C)c2c1=O,-2.43
11,COc1ccc(Br)cc1C(=O)Nc1cccc(C)c1,-0.126
12,CN(C(=O)C1CCOC1)c1nnc(-c2ccccn2)s1 (stereo not drawn),0.442
13,CCOc1ccc(OCC)c(-c2c(=O)n(OCc3ccc(C(C)(C)C)cc3)c3ccccc3[n+]2[O-])c1,-0.137
14,CCCCC(O)(C(NC=O)C(=O)OC)C(F)(F)F (stereo not drawn),-0.227
15,COc1ccc(OCc2ccc(C(=O)NN)cc2)cc1,0.222
16,CCOc1ccccc1NC(=O)C(=O)NCC1CCCN1CC (stereo not drawn),-0.105
17,C=C(C)c1cccc(C(C)(C)NC(=O)NC2CCCC2)c1,-0.875
18,COC(=O)C1=C(C)OC(N)=C(C#N)C1c1cc(C)sc1C (stereo not drawn),-0.593
19,CCc1cccc(OCCCCNCCO)c1,0.564
20,COCCCn1c(Cc2csc(Nc3cccc(Cl)c3)n2)nnc1SCC(=O)OC1CCCCC1,-0.0982
21,Cc1ccc(NC(=O)Cc2noc3ccccc23)cc1,-0.133
22,O=C(Cc1ccc(F)cc1)N/N=C/c1ccncc1,0.586
23,CCC(=O)Nc1ccc(F)c(Cl)c1,-0.242

row,Compound,z-score
1,N#Cc1c(N2C(=O)C3C4C=CC(C4)C3C2=O)sc2c1CCC2 (stereo not drawn),0.0284
2,CCOc1c(OC(C)=O)ccc(/C=C2\N=C(SCC)SC2=O)c1[N+](=O)[O-],-0.451
3,CCN(CC)S(=O)(=O)c1ccc(N2CCCC2)c(C(=O)OCC(=O)/C(C#N)=C(\C)N)c1,-2.04
4,CC(/C=N/n1c(-c2ccc(Cl)cc2)n[nH]c1=S)=C\c1ccco1,active: 6.09
5,CNc1ccc(C2(O)C(=O)c3ccccc3C2=O)cc1,-0.306
6,Cc1cccc(-c2csc(N)c2C(=O)OC(C)C)c1,-0.214
7,C=C(C)C(=O)Nc1cccc(C(C)=O)c1,-0.149
8,CNc1nc(C(=O)O)nc(N2CCOCC2)n1,0.0822
9,CCCCCNC(=O)C(C)NS(=O)(=O)c1ccc(OC)cc1 (stereo not drawn),0.171
10,O=C(OCCN1C(=O)c2ccccc2C1=O)c1ccco1,0.386
11,COc1ccccc1CNC(=O)CN1CCC(n2cnc3cc(F)ccc32)CC1,-0.204
12,COc1cccc(/C(O)=C/c2nc3ccc(C(=O)NCCc4cccc(C)c4)cc3[nH]c2=O)c1,-0.284
13,O=C(NCc1ccccn1)c1cc(-c2ccc(-c3ccccc3)cc2)nc2ccccc12,-0.368
14,O=C(Nc1ccc2c(c1)OCCO2)c1cncc(Br)c1,-0.0828
15,COc1ccc(NC(=O)CC2C(=O)N(CCc3ccccc3)C(=S)N2Cc2cccnc2)cc1 (stereo not drawn),-0.24
16,CC(C)C(NC(=O)c1ccccc1)c1nnc(SCC(=O)Nc2nccs2)n1C (stereo not drawn),-0.525
17,CCc1cc(=O)oc2cc(C)c3c(C)coc3c12,-0.393
18,COc1cccc(OCCCN2CCN(S(=O)(=O)c3ccc(NC(C)=O)cc3)CC2)c1,-0.199
19,Cc1cccc(-c2nnc(SCC3CNC(=O)O3)n2-c2ccc(Cl)cc2)c1 (stereo not drawn),-0.276
20,COc1ccc(NS(=O)(=O)c2cccc(Cl)c2)cc1S(=O)(=O)N1CCCCC1,0.842
21,COc1ccc2c(C)cc(SCC(=O)Nc3c(C)n(C)n(-c4ccccc4)c3=O)nc2c1,-0.212
